Laboratory results reported in the supplement of paper PMC12889115.
The other results are listed elsewhere or left out. Repeats are few or missing, and single values can be far off.

tested on: Salmonella enterica serovar Typhimurium SL1344; assay: bacterial growth OD600 after 18 h in MHB with 0.5 µg/mL polymyxin B; higher = more bacterial growth (less inhibition); settings: 25 µM; polymyxin B 0.5 µg/mL; system: broth
Description: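 Secondary screen of the 553 primary hits at 25 µM. (i) S. Typhimurium SL1344 grown in Mueller-Hinton broth with 0.5 µg/mL polymyxin B, OD600 read after 18 h. (ii) SAFIRE assay: RAW 264.7 macrophages infected with S. Typhimurium sifB::gfp (MOI 30); compound added 2 h post-infection; cells fixed at 18 h; GFP-positive pixel fraction per macrophage imaged by confocal microscopy and expressed as % of DMSO control.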
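Also: polymyxin B level opens the outer membrane while sparing the inner membrane, with novobiocin wells as reference growth inhibitor.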

Row | Structure (SMILES) | bacterial growth OD600
1 | CC(C)C(=O)N(C)C(Cc1ccccc1)C1CCN(C(=O)/C=C/c2cc(F)ccc2F)CC1 (configuration not stated) | 0.347
2 | COc1cc([C@@H]2C[C@H]3CN(CCc4ccccc4)C(=O)[C@]34CCCN24)c(Cl)cc1O | 0.001
3 | Cc1ccsc1C(=O)N(Cc1ccc(OCc2ccc3c(c2)OCO3)cc1)CC1CCCO1 (configuration not stated) | -0.003
4 | O=C(Nc1cccc(-c2ccc(F)cc2)c1)C1CCCN(Cc2ccccn2)C1 (configuration not stated) | 0.003
5 | CCOC(=O)C1(CCc2ccccc2)CCCN(C(=O)c2ccc(COC)s2)C1 (configuration not stated) | 0.004
6 | COc1ccc(C(=O)N2CCCC(Nc3ccc(C(C)C)cc3)C2)cc1F (configuration not stated) | 0.004
7 | O=C(NCC[C@@H]1C[C@@H]2C=C[C@H]1C2)c1cccc(OC2CCN(C(=O)C3CC3)CC2)c1 | 0
8 | COc1cc(-c2nc(CN(CCO)Cc3cccs3)c(C)o2)ccc1F | 0.004
9 | CCC1CN(Cc2ccc(C(=O)OC)cc2)Cc2cc(OC)ccc2O1 (configuration not stated) | 0.021
10 | CCS(=O)(=O)c1ncc(CN(C)C2CCCCC2)n1CCCc1ccccc1 | 0.003
11 | O=C(c1cc(CCc2ccccc2)no1)N1CCCC(c2ccccc2)C1 (configuration not stated) | -0.008
12 | C=CCN(CC=C)c1ccc(-c2nc(-c3cccc(OC)c3OC)no2)cn1 | -0.016
13 | Cc1cnc(SCCN2CCOCC2)nc1C1CCCN(C(=O)CCC2CCCCC2)C1 (configuration not stated) | 0.001
14 | Cc1ccc(CN(C)C(=O)CC2(c3cccc(C(F)(F)F)c3)CC(=O)N(C3CC3)C2=O)cc1 (configuration not stated) | 0.002
15 | CCOC(=O)C1(Cc2ccccc2C)CCCN(Cc2ccc(COC)o2)C1 (configuration not stated) | 0.092
16 | CN(C)c1ccc(CN2CCOc3ccc(C(C)(O)COc4ccccc4)cc3C2)cc1 (configuration not stated) | 0.003
17 | c1ccc(-c2ccc(-c3n[nH]cc3CN3CCN(c4ncccn4)CC3)cc2)cc1 | 0.003
18 | O=C(NCCc1ccccn1)c1ccc(OC2CCN(C(=O)C3CC3)CC2)cc1 | -0.006
19 | C=CCO[C@H]1[C@H](NC(=O)CSC)c2ccccc2C12CCN(Cc1cc(CC(C)C)[nH]n1)CC2 | 0.589
20 | Cc1cccc(C(=O)N2CCCC(C(=O)c3ccc(-c4ccccc4)cc3)C2)n1 (configuration not stated) | 0.002
21 | Cn1nccc1C(=O)NCC1Cc2cc(-c3cccc(OC(F)(F)F)c3)ccc2O1 (configuration not stated) | -0.005
22 | Cc1ccc(-n2cccn2)c([C@@H]2C[C@H]3CN(C4CCCC4)C(=O)[C@]34CCCN24)c1 | 0.524
23 | CN1CCCCCC1C(=O)N(Cc1ccncc1)Cc1cccc(OCCc2ccc(F)cc2)c1 (configuration not stated) | 0.003
24 | COc1ccc2cc(C(C)NC3CCN(c4ccc(C(=O)NCc5cccnc5)cc4)CC3)ccc2c1 (configuration not stated) | 0.006
25 | CN(CCc1cnn(C)c1)c1nncc(-c2ccc3ccccc3c2)n1 | 0.002
26 | COc1ccc2c(c1)SC(c1ccc(F)c(F)c1)CCN2CC1CC1 (configuration not stated) | -0.002
27 | O=C(Nc1ccc(-c2cscn2)cc1)C1CCCN1Cc1ccccc1 (configuration not stated) | 0.048
